{"source": "paper PMC4336329", "about": "(PLoS ONE, 2015)", "note": "Among all 310,000 compounds or so, about 2,200 (0.71%) showed an effect of 50% or more. Effects have a minus sign here. The list shows a part of the results.", "data": [{"molecular_target": "human ether-à-go-go-related gene (hERG) potassium channel (human, UniProt Q12809)", "sequence (Q12809 whole entry, looked up)": "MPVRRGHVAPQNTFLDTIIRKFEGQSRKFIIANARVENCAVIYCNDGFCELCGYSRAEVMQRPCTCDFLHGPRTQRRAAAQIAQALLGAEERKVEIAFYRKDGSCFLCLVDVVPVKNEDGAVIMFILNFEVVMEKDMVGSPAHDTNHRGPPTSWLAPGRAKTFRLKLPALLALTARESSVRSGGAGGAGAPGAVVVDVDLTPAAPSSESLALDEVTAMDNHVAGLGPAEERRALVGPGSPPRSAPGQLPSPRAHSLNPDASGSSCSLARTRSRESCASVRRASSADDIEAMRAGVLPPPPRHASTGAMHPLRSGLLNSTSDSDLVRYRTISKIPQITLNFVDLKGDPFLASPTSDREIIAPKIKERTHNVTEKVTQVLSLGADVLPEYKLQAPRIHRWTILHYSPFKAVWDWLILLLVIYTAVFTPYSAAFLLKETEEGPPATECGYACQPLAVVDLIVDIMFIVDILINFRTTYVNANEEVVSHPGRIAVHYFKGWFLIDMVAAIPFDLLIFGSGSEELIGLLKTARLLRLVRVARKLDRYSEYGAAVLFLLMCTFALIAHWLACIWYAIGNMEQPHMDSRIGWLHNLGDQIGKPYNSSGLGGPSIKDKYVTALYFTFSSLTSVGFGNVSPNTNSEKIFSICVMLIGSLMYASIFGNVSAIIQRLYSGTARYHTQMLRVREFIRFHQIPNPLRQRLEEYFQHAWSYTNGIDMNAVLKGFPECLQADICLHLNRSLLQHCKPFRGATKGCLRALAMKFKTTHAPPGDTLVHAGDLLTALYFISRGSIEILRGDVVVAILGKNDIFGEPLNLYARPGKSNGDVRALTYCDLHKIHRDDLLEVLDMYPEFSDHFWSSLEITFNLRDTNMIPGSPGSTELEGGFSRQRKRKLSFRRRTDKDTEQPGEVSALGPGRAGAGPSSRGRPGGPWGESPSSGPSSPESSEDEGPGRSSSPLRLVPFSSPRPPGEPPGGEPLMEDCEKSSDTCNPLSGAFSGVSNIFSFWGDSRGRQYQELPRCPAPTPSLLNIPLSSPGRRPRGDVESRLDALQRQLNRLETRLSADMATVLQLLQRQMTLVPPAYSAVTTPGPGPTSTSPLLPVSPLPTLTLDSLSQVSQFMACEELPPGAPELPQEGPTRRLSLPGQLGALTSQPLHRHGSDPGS", "experiment": "primary screen, population patch clamp on CHO cells stably expressing hERG", "units": {"hERG current change (%, negative = inhibition) at 1uM": "%"}, "values": [{"smiles": "Cc1ccc(N=Cc2ccc(N(C)C)cc2)cc1C", "hERG current change (%, negative = inhibition) at 1uM": 6.05}, {"smiles": "COc1cc(OC)c(/C=C2\\C(=O)Nc3ccccc32)c(OC)c1", "hERG current change (%, negative = inhibition) at 1uM": 5.79}, {"smiles": "Cc1ccc(CNC(=O)C(=O)NCC2OCCCN2S(=O)(=O)c2ccc(F)cc2)cc1", "note": "(centres unmarked)", "hERG current change (%, negative = inhibition) at 1uM": 12.4}, {"smiles": "COCCn1cnnc1SCC(=O)Nc1cccc(S(=O)(=O)N(C)c2ccccc2)c1", "hERG current change (%, negative = inhibition) at 1uM": -5.05}, {"smiles": "COc1cccc(CC(NC(C)=O)C(=O)NC2CCN(c3nnnn3-c3ccccc3)CC2)c1", "note": "(centres unmarked)", "hERG current change (%, negative = inhibition) at 1uM": 6.82}, {"smiles": "O=S(=O)(Nc1cc(C(F)(F)F)ccc1N1CCOCC1)c1ccc2ccccc2c1", "hERG current change (%, negative = inhibition) at 1uM": 3.54}, {"smiles": "Cc1cccc(C2Nc3ccccc3C(=O)N2CCc2ccccc2)n1", "note": "(centres unmarked)", "hERG current change (%, negative = inhibition) at 1uM": -4.25}, {"smiles": "Cl.Nc1cccc2c3c(oc12)CCCC3", "hERG current change (%, negative = inhibition) at 1uM": 18.5}, {"smiles": "C/C=C\\C(=O)Nc1cccc(C2=NOC3(C2)C[C@@H](C(N)=O)N(C(=O)CCCCC)C3)c1", "note": "(some centres unmarked)", "hERG current change (%, negative = inhibition) at 1uM": -1.83}, {"smiles": "CN(CC(=O)Nc1ccccc1Cl)CC(=O)c1c(N)n(Cc2ccccc2)c(=O)n(C)c1=O", "hERG current change (%, negative = inhibition) at 1uM": 4.57}, {"smiles": "COc1c2ccoc2c(OC[C@@H](OC(C)=O)C(C)(C)O)c2oc(=O)ccc12", "hERG current change (%, negative = inhibition) at 1uM": 16.4}, {"smiles": "O=c1oc2cc(S(=O)(=O)NCCCO)ccc2c2ccc(S(=O)(=O)NCCCO)cc12", "hERG current change (%, negative = inhibition) at 1uM": 18.3}, {"smiles": "CC12CC(c3ccccc3O1)N(C(=O)c1ccco1)C(=O)N2c1ccccc1", "note": "(centres unmarked)", "hERG current change (%, negative = inhibition) at 1uM": 5.54}, {"smiles": "CSc1ccc(CN2CCN(CCC(C)C)C(CCO)C2)cc1", "note": "(centres unmarked)", "hERG current change (%, negative = inhibition) at 1uM": -10.2}, {"smiles": "CCOc1ccc(S(=O)(=O)N2CCN(C(=O)c3cc4c(s3)CCCC4)CC2)cc1", "hERG current change (%, negative = inhibition) at 1uM": 3.05}, {"smiles": "CN(CC(=O)N1CCC(C(N)=O)CC1)S(=O)(=O)c1ccc2ccccc2c1", "hERG current change (%, negative = inhibition) at 1uM": 11.5}, {"smiles": "COc1cc(/C=C/C(=O)OCC(=O)Nc2ccc(S(N)(=O)=O)cc2)ccc1O", "hERG current change (%, negative = inhibition) at 1uM": 8.9}, {"smiles": "CC1CC(C)CN(S(=O)(=O)c2ccc3oc(=O)ccc3c2)C1", "note": "(centres unmarked)", "hERG current change (%, negative = inhibition) at 1uM": -13.3}, {"smiles": "Cc1ccc(C(=O)Nc2ccncc2)cc1[N+](=O)[O-]", "hERG current change (%, negative = inhibition) at 1uM": 9.07}, {"smiles": "CC(C)Cn1cnc2c1c(=O)n(CC(=O)O)c(=O)n2Cc1ccccc1", "hERG current change (%, negative = inhibition) at 1uM": 10.6}, {"smiles": "O=C(O)C(=O)O.S=C(NCCc1ccccc1)N1CCN(Cc2ccccc2)CC1", "hERG current change (%, negative = inhibition) at 1uM": 1.07}, {"smiles": "Cc1ccc2c(c1)N(S(=O)(=O)c1ccc3c(c1)NC(=O)CC(=O)N3)CCO2", "hERG current change (%, negative = inhibition) at 1uM": 9.44}, {"smiles": "C/C(=N\\Nc1nncc2ccccc12)c1ccc(C(C)(C)C)cc1", "hERG current change (%, negative = inhibition) at 1uM": 12.5}]}]}
